Assay results: the supplement of paper PMC3334620
Over roughly 33,000 sequences, “E-score (-0.5 to 0.5)” has its median near -0.012; the highest 2% begin near 0.29. The list shows a part of the results.

target: T1, Ybr033w (UniProt P38073); experiment: PBM E-score (8-mer binding enrichment) (E-score (-0.5 to 0.5)); higher = stronger / more preferred TF binding; most listed sequences are background and not binding sites; details: protein concentration: 200 nM; construct: GST-full length
T1 sequence: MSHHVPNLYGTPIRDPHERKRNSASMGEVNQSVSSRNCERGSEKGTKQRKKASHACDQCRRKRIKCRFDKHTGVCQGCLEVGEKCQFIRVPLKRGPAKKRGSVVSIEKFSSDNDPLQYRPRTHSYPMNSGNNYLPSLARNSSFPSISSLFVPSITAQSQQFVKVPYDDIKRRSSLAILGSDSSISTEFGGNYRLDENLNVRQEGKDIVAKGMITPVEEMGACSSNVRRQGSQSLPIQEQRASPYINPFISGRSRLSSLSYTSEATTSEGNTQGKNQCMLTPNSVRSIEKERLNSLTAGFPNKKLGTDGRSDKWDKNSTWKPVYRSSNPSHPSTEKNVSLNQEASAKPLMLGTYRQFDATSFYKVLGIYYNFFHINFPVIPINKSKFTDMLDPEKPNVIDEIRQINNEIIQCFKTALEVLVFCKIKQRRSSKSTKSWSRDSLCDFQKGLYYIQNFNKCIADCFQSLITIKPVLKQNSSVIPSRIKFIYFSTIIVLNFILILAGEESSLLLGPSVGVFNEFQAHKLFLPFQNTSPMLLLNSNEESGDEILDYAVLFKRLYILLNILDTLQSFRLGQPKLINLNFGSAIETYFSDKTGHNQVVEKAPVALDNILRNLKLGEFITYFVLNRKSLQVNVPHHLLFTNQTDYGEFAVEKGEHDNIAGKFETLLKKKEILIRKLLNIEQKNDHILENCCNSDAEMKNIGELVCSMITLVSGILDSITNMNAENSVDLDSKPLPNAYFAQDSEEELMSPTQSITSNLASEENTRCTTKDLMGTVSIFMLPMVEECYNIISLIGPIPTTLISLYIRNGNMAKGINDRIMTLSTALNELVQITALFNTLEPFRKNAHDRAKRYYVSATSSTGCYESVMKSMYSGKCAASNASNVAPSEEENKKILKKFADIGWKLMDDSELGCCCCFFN
How it was run: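 Yeast transcription factors carrying a GST tag, as full-length proteins or DNA-binding domains, were produced by PURExpress in vitro transcription/translation. About 100-200 nM protein was applied to universal all-10-mer Agilent arrays, double-stranded by primer extension on fresh or once-stripped slides. Bound protein was detected with fluorescent anti-GST, and scans were normalised with masliner. The Universal PBM Analysis Suite gave each ungapped eight-base word, pooled with its reverse complement, an E-score, a modified Wilcoxon-Mann-Whitney statistic.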

Sequence | PBM E-score
TCATGGGA | -0.186
AGTGAGAC | -0.0339
CTAGGCGC | -0.209
CTGAACCA | -0.0718
TGAATCCA | 0.0977
GTCCAAAA | 0.122
AATCGTGC | 0.137
CAACGAGC | -0.22
AAAAAGTC | 0.22
AACGACAT | 0.095
TGCAGACA | -0.104
CTTTCAGA | 0.0473
AAGGCTGC | -0.0229
ACCAGACA | -0.136
CTAGTCGA | -0.163
GACCATGA | -0.23
CACGGTAC | -0.237
CATTATCC | 0.224
AAAGATGG | -0.00628
GCGTTCTA | 0.0618
GAGCATGA | -0.17
GAAGTATA | 0.136
CCTGCACC | -0.287
TCTTGACA | 0.103
ACTAAGTG | 0.0969

Sequence | PBM E-score
CGGGCGTA | -0.263
CGGTCTAA | -0.0696
GAGGAGCA | -0.226
ATCGTTTC | 0.184
CCAGAACA | 0.0782
AAAACTAG | 0.0807
GCAAAGCC | -0.293
CGATGTTC | 0.0131
GGTCCGGA | 0.141
GAACAAGA | 0.214
ATTGGTGC | 0.0298
GCGGCGCA | -0.192
TAATAATA | 0.33
CTATACAA | 0.177
CGGAGCGC | -0.216
GTTCTGAA | 0.0178
CAGCACCA | -0.169
TAGGCTCA | -0.226
CAGATCCG | -0.0592
AAATAGCC | 0.00071
CACAACTG | -0.146
CTTGGAAC | 0.139
GGCAGCAC | -0.151
CTCCATGC | -0.0903
CCGATCGG | -0.27

Sequence | PBM E-score
AATCCGCC | 0.0486
AAATGCTT | 0.0626
ATCCAGAT | 0.108
TCAGCACA | 0.153
ACGGATGA | 0.101
CCCCTTCA | -0.238
ACGTTAGT | 0.0756
GGCTAGGA | -0.106
GTTCGGAA | 0.316
GCGTACCA | 0.00593
AGTGGCGC | -0.16
GGCAGACC | -0.308
GAGTCGGC | -0.163
AGGGTGTG | 0.0199
ACCTTCGT | 0.0542
CTCTTTCA | 0.0712
CGTCAGAA | -0.0873
AACCTGGT | 0.0823
ACTAGCCT | 0.113
ACACCCCT | -0.111
ACCAGGAA | 0.112
CAATCTGA | 0.0393
CAGCTCAC | -0.25
CTTTGTCC | 0.0971
ACCCCGCC | -0.109

Sequence | PBM E-score
ACCAACAG | -0.0816
CCCGCCCA | -0.153
TAGGCGAA | 0.00856
AGGACCTA | 0.12
AACAACGA | 0.15
CAGGGCGG | -0.228
AATGACAA | 0.189
AGGTCACA | -0.181
GCGGTCAC | -0.0802
ACAGAGAG | -0.16
AGCGTCGG | -0.128
TAATACCA | 0.18
AACTTCTA | 0.178
CCAGTTTA | 0.0226
ACGAGACC | 0.0956
CGCAGGCG | -0.314
CCTCGTAA | -0.0544
AGCGATAG | -0.186
CCATGTTA | 0.0981
AGGTGTGA | -0.0514
AGAGACGG | -0.00835
ATAGCAAC | 0.0875
AAGAGGGA | -0.0851
TCGCCGCA | -0.153
CGACGCAA | -0.0543

Sequence | PBM E-score
ACTAGTGG | -0.00318
AGTCTGTC | -0.0266
TCCGGCCA | -0.00525
ATCTCGCC | -0.172
CGCATCAC | -0.019
ATACGTTG | 0.0269
TAATTTGA | 0.126
CATGTCGA | 0.0206
TACTTATA | 0.12
AAAGATCT | -0.0762
AAACCTTT | 0.171
CCAGTTCC | -0.139
TATAGCCA | 0.0762
CGGCAGTC | 0.0207
CGGCGGCA | -0.317
CTTTGAAA | 0.135
TCAGTCCA | -0.323
GCTGTCCA | 0.102
AAGCTAGT | 0.205
AACCAATT | 0.204
AACCGCTA | 0.0756
CGTCAAAC | -0.0527
ATCAATAA | 0.321
AAGTCGAA | -0.0313
CGCTGCGC | -0.191

Sequence | PBM E-score
GACGGCGC | -0.192
AACTAGAT | 0.167
AGCGCAAA | 0.101
GAACATCC | 0.303
CCCATACC | -0.0137
ACGAAGCC | -0.0377
GACCACGA | -0.0132
ATGACGTG | -0.16
CACGCGTA | -0.0691
AATGCTGC | 0.0406
CTGTACCA | -0.041
ACACTAAG | -0.0377
TCTATGCA | 0.0398
GTGCTAGA | 0.0408
GCAGTGAC | -0.118
GGCATTCA | 0.00051
CAAGGGGG | -0.378
CCGTACAC | -0.139
ATCTGGAA | 0.214
AAGTGTGA | -0.0329
GCCACGCA | -0.208
CGTCCTAC | -0.168
TCCTTACA | 0.13
AGTTACAA | 0.124
ATAGTAAT | 0.346

Sequence | PBM E-score
AGACCAGG | -0.14
GGACAGCC | -0.0224
GGCCGACA | -0.176
CGCAGCCC | -0.264
GCGCTAGC | -0.161
AACCCTCA | -0.017
CGGCTTCC | -0.229
AGCGGCCG | 0.00919
CGGCTGAA | -0.0403
ATCAATCA | 0.132
CACATTGG | -0.0498
CCTTCGGC | -0.366
GCAAGACC | -0.159
CCGTGTGC | -0.074
TAGGTTGA | 0.0109
ATCTGGAG | 0.0486
GTGTATTA | 0.28
GGGAGAAA | 0.0625
CCGGCTAG | -0.265
GGCCACCC | -0.214
CAGGTTGC | -0.112
AGTGCACT | 0.00842
